Experimental data: PubChem BioAssay AID504332 (National Center for Advancing Translational Sciences (NCATS), 2011)
In all, about 350,000 compounds went through this assay and about 31,000 (8.9%) were called active. This list was built around the results that the source calls inconclusive (neither active nor inactive); the mix of calls is not that of the screen. The call rests on the fitted dose curve; in most records, active means well fitted inhibition curve with a large enough effect; inconclusive means small, poorly fitted or top-dose-only effect; inactive means no such curve, though single readings can be large or run the other way. Potencies of inconclusive entries are doubtful fits and often do not repeat.

target: Histone-lysine N-methyltransferase EHMT2 (Homo sapiens) (UniProt Q96KQ7); assay: qHTS Assay for Inhibitors of Histone Lysine Methyltransferase G9a; settings: G9a H3K9 monomethylation, AlphaScreen, 2 h; activity, negative = inhibition: at 59 µM (top of the series) unless noted; further: nearly all actives have a fitted effect of over 75% in size
How it was run: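 Using a bead-based AlphaScreen, monomethylated H3K9 product from 2 h room-temperature reactions (G9a 20 nM, peptide 500 nM, SAM 20 uM) was detected with 0.5 ug/mL rabbit anti-H3K9me1 antibody.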
On the % scale 0 is the no-effect control and ±100 the full control effect; potency means the concentration at half of the fitted maximal effect; tags describe the fitted curve by direction and shape.

Chain of UniProt Q96KQ7 (Q96KQ7 whole entry, looked up): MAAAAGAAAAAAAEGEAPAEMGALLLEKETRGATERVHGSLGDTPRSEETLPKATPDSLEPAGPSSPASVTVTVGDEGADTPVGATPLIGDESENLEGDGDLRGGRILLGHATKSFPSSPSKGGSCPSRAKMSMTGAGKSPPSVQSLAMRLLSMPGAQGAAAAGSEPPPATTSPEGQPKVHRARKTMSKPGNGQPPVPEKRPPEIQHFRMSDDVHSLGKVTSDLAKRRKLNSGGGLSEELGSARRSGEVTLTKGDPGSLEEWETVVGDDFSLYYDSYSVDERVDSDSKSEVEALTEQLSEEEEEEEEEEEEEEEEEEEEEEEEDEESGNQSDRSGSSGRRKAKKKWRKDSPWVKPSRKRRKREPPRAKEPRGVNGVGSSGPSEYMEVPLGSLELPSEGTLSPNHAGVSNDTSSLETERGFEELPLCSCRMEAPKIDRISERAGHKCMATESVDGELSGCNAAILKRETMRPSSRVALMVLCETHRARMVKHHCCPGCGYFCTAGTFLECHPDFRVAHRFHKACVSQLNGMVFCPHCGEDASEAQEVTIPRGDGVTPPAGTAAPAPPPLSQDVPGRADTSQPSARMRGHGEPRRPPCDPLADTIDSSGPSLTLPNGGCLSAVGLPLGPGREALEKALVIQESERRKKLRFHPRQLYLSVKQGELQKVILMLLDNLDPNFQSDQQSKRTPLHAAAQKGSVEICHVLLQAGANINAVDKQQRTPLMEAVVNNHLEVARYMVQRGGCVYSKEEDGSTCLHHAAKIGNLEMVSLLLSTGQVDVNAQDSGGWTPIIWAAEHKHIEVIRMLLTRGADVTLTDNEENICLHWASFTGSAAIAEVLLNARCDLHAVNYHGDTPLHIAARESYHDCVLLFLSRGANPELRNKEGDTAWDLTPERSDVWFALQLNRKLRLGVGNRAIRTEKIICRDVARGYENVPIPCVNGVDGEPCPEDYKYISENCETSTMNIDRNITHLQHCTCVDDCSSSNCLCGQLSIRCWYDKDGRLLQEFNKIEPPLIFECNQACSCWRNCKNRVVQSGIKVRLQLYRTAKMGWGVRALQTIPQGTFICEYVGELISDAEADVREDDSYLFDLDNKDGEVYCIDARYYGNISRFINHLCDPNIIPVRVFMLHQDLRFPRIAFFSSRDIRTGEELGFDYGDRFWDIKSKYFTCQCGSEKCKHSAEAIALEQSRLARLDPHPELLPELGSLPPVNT

SMILES | Potency | activity, negative = inhibition
CCN(C(=O)COc1cc(=O)n(CC)c2ccccc12)c1cc(Cl)ccc1OC | inconclusive: 89.1 µM [inhibitor, single point] | 
CC1CCCC(C)N1C(=O)COC(=O)CSc1ccc([N+](=O)[O-])cc1 (stereo not drawn) | inconclusive: 70.8 µM [inhibitor, single point] | 
Cn1cccc1C(=O)C(=O)Nc1cc(Cl)cc(Cl)c1 |  | inactive: 14.5% [at 102 µM]
CC1CN(C(=O)N2CCC(C(=O)NCCCc3ccccc3)CC2)c2cc(Cl)ccc2O1 (stereo not drawn) | inconclusive: 35.5 µM [inhibitor, partial curve, poor fit] | 
COc1ccc(N2C(=O)CSC2c2cccs2)cc1 (stereo not drawn) | active: 50.1 µM | 
COc1cc(NC(=O)c2ccc(C)c(Cl)c2)ccc1NC(=O)c1cc2ccccc2o1 |  | inactive: 6.62%
COCc1c(C(=O)N(C)Cc2ccccc2N2CCCC2)oc2ccccc12 | active: 50.1 µM | 
O=C(NCCc1ccc(F)cc1)c1ccc(Cl)c(S(=O)(=O)N2CCOCC2)c1 |  | inactive: 17.5% [at 2.33 µM]
COc1ccc(NC(=O)CCn2cccc2)c(OC)c1 | inconclusive: 10 µM [inhibitor, partial curve, poor fit] | 
O=C(c1ccc(Cl)cc1)[C@@H]1[C@@H]2C(=O)N(c3cccc4ccccc34)C(=O)[C@@H]2C2c3ccccc3C=NN21 (stereo partly drawn) | active: 20 µM | 
O=C(NCCCN1CCCCCC1)c1cc2c(=O)oc3ccccc3c2s1 | active: 79.4 µM | 
COc1ccccc1Nc1nc(-c2c(C)[nH]c3ccccc23)cs1 | active: 14.1 µM | 
CCOC(=O)c1c(N)sc(C(=O)Nc2ccccc2)c1C |  | inactive: -1.99% [at 0.501 µM]
NC(=S)Nc1nccc(-c2cccs2)n1 | inconclusive: 10 µM [inhibitor, full curve, poor fit] | 
Cc1ccc(CNC(=O)CSc2ncc3c(n2)-c2cc(Cl)ccc2N(C)S3(=O)=O)cc1 |  | inactive: -14.6%
COc1ccccc1C1C=C(c2ccc(Cl)cc2)Nc2nc(NS(C)(=O)=O)nn21 (stereo not drawn) | active: 50.1 µM | 
CCCCOc1ccc(CNC(=O)c2cccc(NC(=O)N3CCSc4ncccc43)c2)cc1 | inconclusive: 3.98 µM [inhibitor, partial curve, poor fit] | 
O=C(CSc1nnc(COc2ccc(Cl)cc2)o1)Nc1ccc(N2CCOCC2)cc1 | active: 31.6 µM | 
COc1cccc(NC(=S)N(C)C2CCN(C)CC2)c1 | inconclusive: 89.1 µM [inhibitor, single point] | 
[O-]c1n[n+](-c2ccc(Cl)cc2Cl)cc2ccccc12 | inconclusive: 56.2 µM [inhibitor, partial curve, poor fit] | 
Cc1ccc2oc(=O)c3cnn(CC(=O)Nc4cc(-c5cccc(F)c5)no4)c3c2c1 | inconclusive: 39.8 µM [inhibitor, partial curve, poor fit] | 
COc1cc2cc(CNc3ccccc3)c(=O)n(CC(=O)Nc3cccc(Cl)c3C)c2cc1OC | inconclusive: 8.91 µM [inhibitor, partial curve] | 
CNC(=S)NNC(=O)CNc1ccc(C)c(Cl)c1 | inconclusive: 50.1 µM [inhibitor, partial curve] | 

SMILES | Potency | activity, negative = inhibition
CN1CCc2c(c3c(n2C)CCN(C)[C@@H]3c2cccnc2)[C@H]1c1cccnc1 | inconclusive: 56.2 µM [inhibitor, partial curve, poor fit] | 
CCOc1ccccc1C1CC(=O)Nc2c1c(=O)n(C)c1ncnn21 (stereo not drawn) | inconclusive: 31.6 µM [inhibitor, partial curve, poor fit] | 
O=C(CCc1nc(CN2CCN(S(=O)(=O)c3ccc(Br)cc3)CC2)no1)N1CCCCC1 | inconclusive: 4.47 µM [inhibitor, full curve, poor fit] | 
CN(C)c1c(F)cc(C(=O)NC(=O)NCc2cccnc2)cc1F | inconclusive: 39.8 µM [inhibitor, partial curve, poor fit] | 
CC/C(=N/Nc1ccccc1Cl)c1cnnc(-c2ccccc2)n1 | inconclusive: 28.2 µM [inhibitor, single point] | 
CCN(CC)S(=O)(=O)c1ccc(C)c(NC(=O)CN2C(=O)NC3(CCCC3)C2=O)c1 | inconclusive: 79.4 µM [inhibitor, single point] | 
N=C1/C(=C/c2ccc(-c3cccc(C(=O)O)c3)o2)C(=O)N=C2SC(CC(=O)N3CCOCC3)=NN12 |  | inconclusive: -154% [inhibitor]
O=C(c1cnc2n(c1=O)CCS2)N(C1CCCCC1)C1CCCCC1 | active: 79.4 µM | 
Cn1c(SCC(=O)Nc2ccc(N3CCOCC3)cc2)nnc1C1CC1 | inconclusive: 22.4 µM [inhibitor, single point] | 
COc1cccc(C(=O)N2CCN(CCCc3ccccc3)CC2)c1OC | inconclusive: 31.6 µM [inhibitor, single point] | 
Oc1ccc2ccccc2c1N=Nc1ccccc1F | active: 2.24 µM | 
NC(=O)c1cc[n+](CC(=O)c2ccc(NC(=O)c3ccccc3)cc2)cc1 |  | inactive: -1.91% [at 102 µM]
O=C(Nc1ccc(Cl)cc1)[C@@H]1[C@@H]2C(=O)N(c3cccc(F)c3)C(=O)[C@@H]2[C@H]2C=CC=NN21 | active: 8.91 µM | 
Cc1cc(C)cc(NC(=O)Cn2c(SCc3cc(C)ccc3C)nc3ccncc32)c1 | inconclusive: 89.1 µM [inhibitor, single point] | 
COc1ccc(N2CC(C(=O)Nc3ccc([N+](=O)[O-])cc3Br)CC2=O)cc1 (stereo not drawn) | inconclusive: 89.1 µM [inhibitor, single point] | 
COc1ccc(/C(C)=N/NC(=O)CNC(=O)c2cccnc2)cc1OC | inconclusive: 39.8 µM [inhibitor, single point] | 
Nc1nonc1NC(=O)CSc1nc2ccccc2s1 | inconclusive: 25.1 µM [inhibitor, single point] | 
CN1CCCC(CC2Oc3ccccc3Sc3ccccc32)C1 (stereo not drawn) | inconclusive: 1 µM [inhibitor, full curve, poor fit] | 
Cc1ccccc1OCC(=O)NNC(=S)NC(=O)c1ccco1 | inconclusive: 22.4 µM [inhibitor, partial curve, poor fit] | 
O=C(Nc1ccc(Br)cc1F)c1ccc2c(c1)OCCO2 | active: 50.1 µM | 
CCc1nc(SCC(=O)Nc2ccccc2Cl)n[nH]1 |  | inactive: 2.51% [at 102 µM]
CCn1cnc2cc(NCc3nc4ccccc4n3Cc3ccccc3)ccc21 | inconclusive: 17.8 µM [inhibitor, partial curve, poor fit] | 
CCOC(=O)N1CCN(CC(O)COc2cc(C)cc(C)c2)CC1 (stereo not drawn) |  | inactive: -1.94% [at 2.33 µM]

SMILES | Potency | activity, negative = inhibition
COc1cc(NCC(=O)Nc2cccc(S(=O)(=O)N3CCCCC3)c2)cc(OC)c1OC | inconclusive: 8.91 µM [inhibitor, single point] | 
CCc1ccccc1NC(=O)CN(C)C(=O)Cn1ncc(Cl)c(Cl)c1=O |  | inactive: -19.7% [at 102 µM]
COc1c(F)c(F)c(C(=O)Nc2ccc(N3CCN(Cc4ccccc4)CC3)cc2)c(F)c1F | active: 17.8 µM | 
O=C(NC1CCCCC1)c1c2c(nc3ccccc13)CCC2 | inconclusive: 11.2 µM [inhibitor, partial curve, poor fit] | 
Oc1ccc(CN2CCN(c3ncccn3)CC2)cc1 | active: 79.4 µM | 
CCCCc1ccc(-n2nc3cc(C)c(NC(=O)c4ccc(C#N)cc4F)cc3n2)cc1 | inconclusive: 35.5 µM [inhibitor, single point] | 
CC(=O)Nc1ccc2c(c1)nc(CCNC(=O)c1ccccc1)n2C | inconclusive: 10 µM [inhibitor, partial curve, poor fit] | 
O=C(CSc1nnc(NC2CCCCC2)s1)NN1C(=O)NC2(CCCCC2)C1=O | active: 44.7 µM | 
Cc1ccc(N2C(=O)C3CCCN3C2=S)cc1 (stereo not drawn) | inconclusive: 89.1 µM [inhibitor, single point] | 
COc1ccc(-c2[nH]ncc2CN2CCC(OCc3ccccn3)CC2)c(F)c1 |  | inconclusive: -52% [inhibitor]
COc1ccc(C2OC(=O)C(C)(C)C(=O)C2(C)C)cc1OC (stereo not drawn) | inconclusive: 39.8 µM [inhibitor, partial curve, poor fit] | 
COc1ccccc1C(=O)Oc1ccc(C(c2c(C)[nH][nH]c2=O)c2c(C)[nH][nH]c2=O)cc1 | inconclusive: 3.16 µM [inhibitor, partial curve] | 
CCOc1ccc(S(=O)(=O)NCCCN2CCCC2=O)cc1 | inconclusive: 6.31 µM [inhibitor, partial curve, poor fit] | 
CC(=O)N1CC(C)Oc2ccc(S(=O)(=O)Nc3ccc(Cl)cn3)cc21 (stereo not drawn) |  | inactive: 11.4%
COC(=O)c1cc(-c2ccc(C)cc2)c2c(=O)n(C)c(=O)n(C)c2n1 |  | inactive: 9.59%
CCOC(=O)C1=C(Nc2ccccc2)OCC1=O |  | inactive: 1.98%
Cn1nc(C(=O)NCc2cccs2)c2ccccc2c1=O | inconclusive: 25.1 µM [inhibitor, single point] | 
Cc1cnc(NC(=O)CSc2nnc(-c3ccc(Cl)cc3Cl)n2N)s1 | inconclusive: 7.08 µM [inhibitor, single point] | 
O=C(CCCn1c(=O)c2cccn2c2ccccc21)NCCc1ccc(Cl)cc1 | inconclusive: 11.2 µM [inhibitor, partial curve] | 
Cc1cccc(NC(=O)COC(=O)c2ccc(S(=O)(=O)N3CCCCCC3)cc2)c1 | inconclusive: 79.4 µM [inhibitor, partial curve] | 
Cc1oc2c(Cl)c(Cl)c(O)c(CN(C)C)c2c1C(=O)c1ccc(Cl)cc1 | inconclusive: 31.6 µM [inhibitor, single point] | 
CCC(C)[C@H](NC(=O)c1cc2cc(Cl)ccc2n1C)C(=O)N1CCC[C@H]1C(=O)O (stereo partly drawn) | inconclusive: 89.1 µM [inhibitor, single point] | 
